In PubChem BioAssay AID588855 (National Center for Advancing Translational Sciences (NCATS), 2011):
About 5,000 (1.2%) of roughly 410,000 compounds were called active. Inconclusive means that the source gave no clear call. Such entries were picked first, then a sample of the others. Calls follow the shape of the dose curve; as a rule, active = well fitted inhibition curve with a large enough effect; inconclusive = small, poorly fitted or top-dose-only effect; inactive = no such curve, though single readings can be large or run the other way. Where the call is inconclusive, the potency comes from a doubtful curve fit.

Experiment: qHTS for Inhibitors of TGF-b; also: nearly all actives have a fitted effect of over 65% in size
Details: HepG2 CAGA-GFP TGF-b/SMAD3 reporter, GFP fluorescence, 18 h, TGF-beta stimulated, 500 pg/mL final; series mostly up to 46.1 µM
Summary of the method: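 Read-out: total well GFP (ex488/em500-530) summed from mean per-cell fluorescence. Cells: HEPG2 CAGA-GFP, 1% FBS DMEM, 18 h at 37 degrees C with 500 pg/mL final TGF-beta. Unstimulated wells served as the full-inhibition control; stimulated DMSO wells = 0%.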
Potency is read from the fitted curve at half-maximal effect; tags tell the direction and shape of the fitted curve.

Row | SMILES | Potency
1 | CCN(CC)S(=O)(=O)c1cc(NC(=O)Cc2ccc(S(=O)(=O)N3CCOCC3)s2)ccc1Cl | inconclusive: 7.94 µM [inhibitor, partial curve]
2 | CCOc1cc(/C=C/c2ccc3cccc([N+](=O)[O-])c3n2)ccc1O | active: 12.6 µM
3 | O=C(N/N=C\C=C\c1ccc2c(c1)OCO2)c1ccc(F)cc1 | inactive
4 | CN(C)c1ccc(C(C(=O)NCC2CCCO2)N(Cc2ccccc2)C(=O)c2snc(C(N)=O)c2N)cc1 (configuration not stated) | inconclusive: 0.562 µM [inhibitor, full curve, poor fit]
5 | Cc1cc(C)cc(C(=O)OCC(=O)Nc2ncccn2)c1 | inactive
6 | Cc1ccc(-c2nnc(N3CCN(C(=O)COc4cccc(C)c4)CC3)c3ccccc23)cc1 | inconclusive: 35.5 µM [inhibitor, single point]
7 | COc1cc2c(c(OC)c1OC)-c1ccc(SC)c(=O)cc1C(NC(=O)c1ccccc1)CC2 (configuration not stated) | inconclusive: 0.0891 µM [inhibitor, full curve, poor fit]
8 | O=C(Nc1ccc(-n2cccn2)cc1)C1CCCCN1Cc1cccc2cccnc12 (configuration not stated) | inconclusive: 25.1 µM [inhibitor, single point]
9 | Cc1cccc(NC(=O)C2CCN(S(=O)(=O)c3ccc4[nH]c5c(c4c3)CCCCC5)CC2)c1 | inconclusive: 7.08 µM [inhibitor, full curve]
10 | COC(=O)C1CC23C=CCN4CCC5(c6ccccc6NC15C2C)C43 (configuration not stated) | inconclusive: 3.98 µM [inhibitor, full curve]
11 | CCOc1ccccc1NC(=O)C(=O)c1cc(C)n(-c2cccc(C)c2C)c1C | inconclusive: 22.4 µM [inhibitor, single point]
12 | CCC(=O)Nc1ccccc1C(=O)OCc1ccc(C(=O)c2ccccc2)cc1 | inconclusive: 35.5 µM [inhibitor, partial curve, poor fit]
13 | O=S1(=O)C[C@@H](N2CCOCC2)[C@H](N2CCOCC2)C1 | inactive
14 | COc1cc(OC)c2c(-c3cccc(-c4cccc(C)c4)c3)cc(=O)oc2c1 | inconclusive: 10 µM [inhibitor, partial curve, poor fit]
15 | Cc1ccc(Cc2c(-c3ccc(F)cc3)nc3ccc(Cl)cn23)cc1 | inconclusive: 22.4 µM [inhibitor, single point]
16 | O=C(NC1CCN(Cc2ccccc2)CC1)c1cccc(Br)c1 | inconclusive: 5.62 µM [inhibitor, full curve]
17 | COC(=O)[C@H](CCSC)NC(=O)N1CCN(Cc2ccccc2)CC1 | inconclusive: 35.5 µM [inhibitor, single point]
18 | COc1ccc(CCN(Cc2ccccn2)C(=S)Nc2ccccc2Cl)cc1OC | inactive
19 | Cc1ccc(NC(=O)c2cc3nc(C)cc(C)n3n2)cc1 | inconclusive: 25.1 µM [inhibitor, single point]
20 | CC(=O)Nc1ccccc1NS(=O)(=O)c1ccccc1NO | inconclusive: 35.5 µM [inhibitor, single point]
21 | O=C1CC(C2CCCO2)C(=O)N1c1ccccc1 (configuration not stated) | inactive
22 | CCOc1ccccc1C(=O)Nc1ccccc1-c1ccccc1 | inconclusive: 35.5 µM [inhibitor, single point]
23 | CCOc1ccc(Br)cc1C1=CC(=O)C[C@H](c2ccc(OC)cc2)C1 | inconclusive: 35.5 µM [inhibitor, partial curve, poor fit]

Row | SMILES | Potency
24 | CC(=O)NC1C(=O)N(Cc2ccccc2)c2ccc(Br)cc21 (configuration not stated) | inconclusive: 35.5 µM [inhibitor, single point]
25 | CC(C)c1nnc(NC(=O)CSc2ccccc2)s1 | inconclusive: 0.794 µM [inhibitor, full curve, poor fit]
26 | COc1ccccc1C(=O)Nc1cccc(OCc2cc(=O)n3c(C)csc3n2)c1 | inconclusive: 15.8 µM [inhibitor, partial curve, poor fit]
27 | O=C(NCCc1ccccn1)c1c(-c2ccccc2)sc2ccccc12 | inconclusive: 6.31 µM [inhibitor, single point]
28 | O=S(=O)(c1cccc(-c2csc(N/N=C/c3ccco3)n2)c1)N1CCOCC1 | inconclusive: 8.91 µM [inhibitor, partial curve, poor fit]
29 | Nc1nnc(SCC(=O)Nc2cccc(F)c2)s1 | inactive
30 | CCC(C)NC(=O)CN(C1CCCCC1)S(=O)(=O)c1ccc(F)cc1 (configuration not stated) | inconclusive: 5.62 µM [inhibitor, single point]
31 | CCCc1ncc(CN2CCCC(C(=O)Nc3ccc(-c4cccc(OC)c4)cc3)C2)cn1 (configuration not stated) | inconclusive: 25.1 µM [inhibitor, single point]
32 | Cc1ccc(NC(=S)NC2CC3CCC(C2)N3Cc2ccco2)c(C)c1 (configuration not stated) | inconclusive: 35.5 µM [inhibitor, single point]
33 | CSc1ccc(/C=N\Nc2nncn2N)cc1 | inconclusive: 12.6 µM [inhibitor, partial curve, poor fit]
34 | CCOc1ccc(NC(=O)CCc2nc3cccnc3n2Cc2ccc(OC)cc2)cc1 | inactive
35 | COC(=O)N1N=C(c2ccc(Br)cc2)CC1(O)C(F)(F)F (configuration not stated) | inconclusive: 5.62 µM [inhibitor, single point]
36 | O=C(CNS(=O)(=O)c1cccc(Br)c1)NCCCc1ccccc1 | inconclusive: 35.5 µM [inhibitor, single point]
37 | CCCCc1cc(O)c(CCCC)c(O)c1 | inconclusive: 14.1 µM [inhibitor, single point]
38 | O=C(Nc1ccccc1F)Nc1ccccc1F | inactive
39 | CCOC(=O)C1=C(COC(=O)c2cc(S(=O)(=O)N(C)C)ccc2C)NC(=O)NC1C (configuration not stated) | inactive
40 | O=C(C[n+]1cccc(Br)c1)c1cc(Cl)ccc1Cl | inactive
41 | COc1ccc(NS(=O)(=O)c2cc(N/C(=N\S(=O)(=O)c3ccccc3)c3ccc(F)cc3)ccc2Cl)cc1 | inconclusive: 35.5 µM [inhibitor, single point]
42 | CCOc1ccc(-c2c(C)nn3c(C)c(C(=O)Nc4cccc(Cl)c4C)cnc23)cc1OCC | inactive
43 | COC1=CC(=Cc2c(N)n3nc(CC(=O)N4CCCCC4)sc3nc2=O)C=C(OC)C1=O | inconclusive: 35.5 µM [inhibitor, single point]
44 | COc1cc2c(cc1OC)CN(C(=O)c1oc3ccccc3c1C)CC2 | inconclusive: 12.6 µM [inhibitor, single point]
45 | CSc1nn(Cc2ccccc2C)c(NC(C)=O)c1S(=O)(=O)c1ccc(C)cc1 | inconclusive: 15.8 µM [inhibitor, single point]
46 | CCc1ccc(/C=C/c2c([N+](=O)[O-])c(=O)n(C)c(=O)n2C)cc1 | inactive

Row | SMILES | Potency
47 | O=C(O)CCCNC(=O)OCc1ccccc1 | inactive
48 | COc1ccc(OC)c(NC(=O)c2nc(S(=O)(=O)Cc3ccccc3)ncc2Cl)c1 | active: 3.55 µM
49 | CCN(CC)CCNc1ccc(CO)c2oc3ccccc3c(=O)c12 | inconclusive: 31.6 µM [inhibitor, single point]
50 | O=c1[nH]c(Cc2cccc(C(F)(F)F)c2)nc2ccccc12 | inconclusive: 35.5 µM [inhibitor, single point]
51 | CCCCCC1=C(C(=O)OC)C(C(=O)OCC)N(S(=O)(=O)C(F)(F)F)c2ccccc21 (configuration not stated) | inconclusive: 11.2 µM [inhibitor, partial curve]
52 | Cn1c(=O)c2cc(S(=O)(=O)NCCC(=O)Nc3ccc(Cl)cc3)ccc2n(C)c1=O | inconclusive: 6.31 µM [inhibitor, single point]
53 | CN1C(=O)C(O)(CC(=O)c2ccccc2O)c2cc(Br)ccc21 (configuration not stated) | inconclusive: 20 µM [inhibitor, single point]
54 | Cc1ccc(S(=O)(=O)N2CCN(C(C(=O)Nc3ccc(F)cc3)c3ccccc3)CC2)cc1 (configuration not stated) | inconclusive: 0.891 µM [inhibitor, full curve]
55 | NC(=O)c1ccsc1NC(=O)CCS(=O)(=O)c1ccccc1 | inconclusive: 35.5 µM [inhibitor, single point]
56 | COc1ccc(C(=O)NC2CCSC2=O)cc1 (configuration not stated) | inconclusive: 20 µM [inhibitor, single point]
57 | CC1(C)CCC(=NNC(N)=S)CC1 | inconclusive: 12.6 µM [inhibitor, single point]
58 | CCOCCCNC1=C(Cl)C(=O)c2ccccc2C1=O | inconclusive: 15.8 µM [inhibitor, single point]
59 | COc1ccc(-c2cn(-c3ccc(Br)cc3)c3[n+]2CCS3)cc1 | inconclusive: 12.6 µM [inhibitor, partial curve, poor fit]
60 | COc1cc(CNC(=O)c2cc(-c3cc(C)cc(F)c3)n[nH]2)cc(OC)c1 | inconclusive: 12.6 µM [inhibitor, partial curve, poor fit]
61 | Oc1ccccc1/C=N/NC(=S)NC1CC2C=CC1C2 (configuration not stated) | inconclusive: 0.447 µM [inhibitor, full curve]
62 | CC1(c2ccc(OC(F)F)cc2)NC(=O)N(CC(=O)Nc2ccc(Cl)cc2F)C1=O (configuration not stated) | inactive
63 | COc1ccc(NC(=O)C2CCCN(S(=O)(=O)c3cccs3)C2)cc1OC (configuration not stated) | inactive
64 | CCCC(C(=O)NCc1ccco1)N(C(=O)CNS(=O)(=O)c1ccccc1)C1CCCC1 (configuration not stated) | inconclusive: 4.47 µM [inhibitor, full curve, poor fit]
65 | COc1ccccc1C(=O)NCCC(=O)Nc1ncccc1C | inactive
66 | CCOC(=O)C1=C(C)NC(C)=C(C(=O)OCC)C1c1cccs1 | inconclusive: 0.708 µM [inhibitor, full curve]
67 | COc1cc(OC)cc(C(=O)N2CCN(C(=O)c3ccc(-c4ccccc4)cc3)CC2)c1 | inconclusive: 35.5 µM [inhibitor, single point]
